Experimental data published in paper PMC4336329 (PLoS ONE, 2015).
Screen size: about 310,000 compounds; about 14,000 (4.5%) showed an effect of 50% or more. The effect is printed as a negative number. The list shows a part of the results.

What follows are compounds tested against human ether-à-go-go-related gene (hERG) potassium channel (human, UniProt Q12809) (assay: primary screen, population patch clamp on CHO cells stably expressing hERG).
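Further: peak tail current of the secondary pulse compared with the same well before compound.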

Sequence of human ether-à-go-go-related gene (hERG) potassium channel (Q12809 whole entry, looked up): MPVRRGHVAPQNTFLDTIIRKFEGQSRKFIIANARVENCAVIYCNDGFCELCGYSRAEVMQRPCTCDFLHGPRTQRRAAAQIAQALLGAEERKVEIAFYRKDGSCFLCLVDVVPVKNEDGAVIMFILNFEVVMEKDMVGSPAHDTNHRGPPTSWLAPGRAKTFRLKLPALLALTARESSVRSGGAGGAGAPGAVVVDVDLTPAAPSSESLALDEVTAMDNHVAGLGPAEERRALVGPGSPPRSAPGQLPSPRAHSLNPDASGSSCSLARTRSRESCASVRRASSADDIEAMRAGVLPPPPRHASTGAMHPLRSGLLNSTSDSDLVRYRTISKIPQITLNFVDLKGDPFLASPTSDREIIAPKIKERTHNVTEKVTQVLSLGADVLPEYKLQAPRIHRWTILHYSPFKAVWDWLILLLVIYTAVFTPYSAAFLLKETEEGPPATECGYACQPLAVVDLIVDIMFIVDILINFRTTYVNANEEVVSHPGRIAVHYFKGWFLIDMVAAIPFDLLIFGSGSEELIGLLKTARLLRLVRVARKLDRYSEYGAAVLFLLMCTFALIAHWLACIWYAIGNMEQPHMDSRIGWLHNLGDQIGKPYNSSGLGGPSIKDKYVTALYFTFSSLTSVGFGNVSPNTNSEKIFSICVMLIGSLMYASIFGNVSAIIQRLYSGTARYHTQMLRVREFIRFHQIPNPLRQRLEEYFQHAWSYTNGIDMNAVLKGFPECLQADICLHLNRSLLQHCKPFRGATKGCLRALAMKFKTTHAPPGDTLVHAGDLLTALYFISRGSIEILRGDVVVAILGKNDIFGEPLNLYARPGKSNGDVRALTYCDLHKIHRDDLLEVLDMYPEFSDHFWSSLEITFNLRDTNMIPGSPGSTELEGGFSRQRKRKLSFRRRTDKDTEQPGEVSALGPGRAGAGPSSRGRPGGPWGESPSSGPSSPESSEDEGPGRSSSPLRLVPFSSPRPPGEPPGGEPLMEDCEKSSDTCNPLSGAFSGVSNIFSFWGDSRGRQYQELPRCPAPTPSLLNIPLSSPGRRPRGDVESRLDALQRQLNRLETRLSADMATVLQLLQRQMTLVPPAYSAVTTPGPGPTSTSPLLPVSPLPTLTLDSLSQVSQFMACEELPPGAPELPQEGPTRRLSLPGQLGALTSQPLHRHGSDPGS

SMILES | hERG current change (%, negative = inhibition) at 10uM [%]
Cc1ccccc1C(=O)NNC(=O)CSc1nc(-c2ccccc2)cc(=O)[nH]1 | 7.8
CCCN(CCC)c1nc(Cl)nc(NCCN2CCOCC2)n1 | -13.2
O=C(O)C1CCC(N2C(=O)c3cccc([N+](=O)[O-])c3C2=O)CC1 (stereo not shown) | 19
Cn1c(COc2ccc(Cl)cc2Cl)nnc1SCC(=O)NCC1CCCO1 (stereo not shown) | -20.9
CC(=O)Nc1nc(C)c(Oc2ccc(Cl)cc2)c(=O)[nH]1 | 17.2
CC(C)(C)C1CCC(=NNc2ccc(S(N)(=O)=O)cc2[N+](=O)[O-])CC1 (stereo not shown) | 7.42
Cc1nn(Cc2ccccc2)c(C)c1C(=O)OCC(=O)Nc1ccccc1SCC#N | -26.9
CCC(c1nc2ccccc2c(=O)n1-c1cccnc1)N1C(=O)c2ccccc2C1=O (stereo not shown) | -4.61
O=C(Nc1cccc([N+](=O)[O-])c1)NC1CCS(=O)(=O)C1 (stereo not shown) | -11.6
CCC(C)C(=O)Nc1ccc(S(=O)(=O)Nc2nccs2)cc1 (stereo not shown) | -8.77
CC(C)(C)n1ncc2c(=O)n(CC(=O)Nc3ccccc3)cnc21 | 27.2
Cc1ccc(S(=O)(=O)CNC(=O)c2ccccc2)cc1 | 7.71
COc1cc(/C=C2\SC(=O)N(CCNC(=O)c3sc4cc(F)ccc4c3Cl)C2=O)cc(OC)c1OC | 20.1
O=C(COc1cccnc1[N+](=O)[O-])Nc1ccc2c(c1)CCC2 | -1.54
O=C(COc1ccccc1Cl)NCCNC(=O)c1ccco1 | 1.86
COc1ccccc1Nc1[nH+]c(C)cs1.[Br-] | 2.66
Cc1ccc(S(=O)(=O)N(Cc2cc3ccc(C)cc3[nH]c2=O)c2ccccc2)cc1 | 1.16
O=C(Nc1nc2ccc(Cl)cc2s1)c1ccco1 | -1.54
CCOc1ccc(N(C)Cc2cc(=O)oc3ccc(OCC)cc23)cc1 | -1.17
Cc1ccc(C)c(NC(=O)CCC(=O)NN=C2CCCC2)c1 | 15.6
COc1ccc(C(=O)N2CCCC(CNC(=O)c3ccccc3Cl)C2)o1 (stereo not shown) | 17.9
COc1ccccc1NS(=O)(=O)c1cccc(-n2c(O)c(C=Nc3ccccc3C(=O)O)c3ccccc3c2=O)c1 | 2.75

SMILES | hERG current change (%, negative = inhibition) at 10uM [%]
COc1ccc(-c2cc(C(=O)Nc3cc(C)on3)no2)cc1OC | 20.7
CC1CCCC(C)N1/N=C/c1ccc(N(C)C)cc1 (stereo not shown) | -7.66
Cc1ccc(C(=O)Nc2ncn[nH]2)cc1 | 8.36
N#CC(C(N)=O)=C1CCC2(CC1)OCCCCO2 | -2.98
Cc1nn(Cc2ccc(Cl)cc2)c(Cl)c1/C=N/NC(=O)CNc1ccccc1F | 1.56
CC(=O)NC1CCCc2c1cnn2-c1ccc(C(C)(C)C)cc1 (stereo not shown) | -29.1
COc1cc(C)ccc1OCCOCCN(C)Cc1ccccc1.O=C(O)C(=O)O | -32.8
COc1ccc(CNCc2cccc(Cl)c2)cc1 | -25.4
O=C(N/N=C/c1ccc(Cl)c(Cl)c1)c1ccc2nc[nH]c2c1 | 14.6
Cc1ccc(NC(=O)CSc2nc(=O)n(CCN3CCOCC3)c3c2CCCC3)cc1 | -27.5
CC(=O)Nc1cccc(-n2nnc(SCC(=O)c3ccccc3)n2)c1 | 2.38
O=C(CCC(=O)OCC(=O)c1cccc([N+](=O)[O-])c1)Nc1ccccc1Cl | 7.66
COc1ccc(Cl)cc1NC(=O)CN(C)CC(=O)N1CC(=O)Nc2ccccc21 | 9.01
CCOc1ccc(CN2CCNC(=O)C2CC(=O)NCCc2ccccn2)cc1 (stereo not shown) | -0.32
Cl.NCCCCCc1nnc(SCc2ccccc2Cl)o1 | -43.5
CCOc1ccc(C(=O)COC(=O)c2ccc(-n3cnnn3)cc2)cc1 | 29
C#Cc1ccc([C@@H]2C=C(C(=O)NCc3ccccc3)O[C@H](OCCCCO)C2)cc1 | -19.6
CC1(C)CC(=O)c2cc(NC(=O)c3ccc(F)cc3)c(=O)oc2C1 | 3.59
CCC(C)NC(=O)c1ccccc1NC(=O)c1ccc(CSc2ccccc2)cc1 (stereo not shown) | 11.1
COc1cc(OC)cc(C(=O)Nc2cccc(NC(=O)c3cc(OC)cc(OC)c3)n2)c1 | 11.8
O=C(NCc1ccco1)c1ccc2c(=O)n(CCC3=CCCCC3)c(=O)[nH]c2c1 | 23.3
OCC[C@H]1C[C@@H](O)[C@H](O)[C@@]2(CCCc3ccccc3O2)O1 | 13

SMILES | hERG current change (%, negative = inhibition) at 10uM [%]
Cc1ccc(-n2c(O)c(C=Nc3ccc(S(=O)(=O)N(C)C)cc3)c(=O)[nH]c2=O)cc1 | 9.9
COc1ccc(C(=O)NCCc2nnc3ccc(SCC(=O)NCc4ccc(F)cc4)nn23)cc1 | 12.6
Cc1cccc(OCC(=O)NCC(=O)N/N=C/c2cccs2)c1 | 1.15
CCOc1ccccc1CNC(=O)C1CCN(C(=O)c2sccc2-n2cccc2)CC1 | -1.29
Cl.OCCNc1nc(NCc2ccccc2)c2ccccc2n1 | -54.6
Cc1nn(C)cc1/C=C(/C#N)C(N)=O | 9.11
O=C(Nc1ccc(N2CCOCC2)cc1)c1ccc(Cl)c(S(=O)(=O)N2CCCCC2)c1 | 13.2
COc1ccc2c(c1)c1nc3ccccc3nc1n2CCCN1C(=O)c2ccccc2C1=O | 9.7
Cc1cccc(N2C(=O)N3[C@H](c4ccc(Cl)cc4)[C@@H]4C(=O)N(C5CCCCC5)C(=O)[C@@H]4[C@]3(Cc3ccc(Cl)cc3)C2=O)c1 | 10.3
CC(C)CCNC(=O)Cc1ccccc1[N+](=O)[O-] | -2.16
O=C(NNC(=S)NC(=O)c1cccc([N+](=O)[O-])c1)c1ccc(O)cc1 | 22
Cc1cc2nc(SCC(=O)Nc3nonc3C)c3c(c2cc1C)CCCC3 | -3.87
CCN(CC)S(=O)(=O)c1ccc2c(c1)C(=NO)c1cc(S(=O)(=O)N(CC)CC)ccc1-2 | -2.31
C#Cc1ccc2c(c1)COc1c3ccccc3nn1-2 | 5.92
CCCn1c(=O)c2ccccc2n2c(SCC(=O)N3CCc4ccccc4C3)nnc12 | -23.6
COc1ccc(OCCn2cnc3ccccc32)cc1 | 0.789
COc1c(C)cc(C(=O)C2CCCN(C3CCOCC3)C2)cc1C (stereo not shown) | -15.2
O=C(NCc1ccc(Cl)cc1)c1cccc(S(=O)(=O)N2CCCC2)c1 | -30.9
O=c1c2oc3ccccc3c2ncn1Cc1ccc(Cl)cc1 | 11.7
Cc1cccc(C(=O)NCCc2nnc(SCC(=O)Nc3nc(C)cs3)n2C)c1 | -21.9
Cc1ccc(C(=O)N(CC(C)C)c2c(N)n(Cc3ccccc3)c(=O)[nH]c2=O)o1 | 9.97
CC1(C)C2CCC1(CS(=O)(=O)N1CCC(C(N)=O)CC1)C(=O)C2 (stereo not shown) | 9.59

SMILES | hERG current change (%, negative = inhibition) at 10uM [%]
CCCCCC(/C=N/Nc1ccc(S(=O)(=O)N2CCOCC2)cc1[N+](=O)[O-])=C\c1ccccc1 | -3.85
COC/C=C/C1=CC2=CC(=O)C(C)(OC(=O)c3cnc4ccccc4n3)C(=O)C2=CN1CCCOC(C)C (stereo not shown) | 1.69
O=C(COC(=O)c1c2c(nc3ccccc13)CCCCC2)c1ccc(Cl)s1 | -0.503
Cc1cc(C)c2c(c1)SC1=NC(c3ccccc3)(C(F)(F)F)NC(=O)N12 (stereo not shown) | 14.8
Cc1ccc(C)c(Cc2c(C)nc3c(C(=O)NCc4ccc5c(c4)OCO5)cnn3c2C)c1 | 9.3
CCCOC(=O)Cc1n[nH]c(=O)[nH]c1=O | 12.5
CCOc1cc(Br)c(C(=O)O)cc1OCC | 9.19
CNc1nnc(CSc2nc(C)cc(C)n2)s1 | 8.93
CC(=O)Nc1cccc(NC(=O)CSc2nc3c(=O)n(C)c(=O)n(C)c3n2C)c1 | 4.47
CCn1cc(Cl)c(C(=O)N2N=C3/C(=C/c4cccs4)CCCC3C2c2cccs2)n1 (stereo not shown) | -5.66
COc1ccc(OC)c(N2C(=O)[C@@H]3C(c4ccccc4Cl)=NO[C@@H]3C2=O)c1 | 7
CCn1nc(C(=O)NNC(=O)c2ccccc2OCc2c(C)noc2C)c2ccccc2c1=O | -20.8
CCOC(=O)CC1(NC(=O)c2cc(COc3c(F)cccc3F)on2)CCCCC1 | -1.38
Clc1ccc(CSc2ncccn2)cc1 | 3.57
COc1ccc(NCc2nnc(SCC(=O)c3ccc(OC)cc3)n2C)cc1 | 0.995
COc1ccc(CCNC(=O)C2CCCN(c3ncnc4c3nc3n4CCCCC3)C2)c(OC)c1 (stereo not shown) | -42.8
Cc1ccc(Cn2nnnc2CN2CCC(c3nc4ccc(Cl)cc4[nH]3)CC2)cc1 | 5.01
COCC[N+]1(C)CCCCC1.[I-] | 21.5
Cn1c(=O)c2c(ncn2CC(=O)Nc2nc3ccc(F)cc3s2)n(C)c1=O | -15.6
